B1: Ab1110: LS2A indinavir binding domain, FIGS. 5A-5E (antibody)
heavy: EVQLVESGGGLVQPGGSLRLSCAASGFTFSNYWMNWVRQAPGKGLEWVAQIRVKSENFATHYADSVKGRFTISRDDSKSTVYLQMNSLRAEDTAVYYCTLYDGFSWGQGTLVTVSSASTKGPSVFPLAPSSKSTSGGTAALGCLVKDYFPEPVTVSWNSGALTSGVHTFPAVLQSSGLYSLSSVVTVPSSSLGTQTYICNVNHKPSNTKVDKKV[human IgG1 Fc with changes left out]
scFv: QVQLVQSGAEVKKPGASVKVSCKASGYTFTSYWMHWVRQHPGQGLEWMGMIHPNSGGANYAQKFQGRVTMTRDTSTSTVYMELSSLRSEDTAVYYCAMGDYVSRDYWGQGTLVTVSSGGGGSGGGGSGGGGSEIVLTQSPGTLSLSPGERATLSCRASSSVSSSYLHWYQQKPGQAPRLLIYSTSSRATGIPDRFSGSGSGTDFTLTISRLEPEDFAVYYCQQYSGYQFTFGQGTKLEIKGGGGS[human IgG1 Fc with changes left out]
modifications: light chain entry not cited; REGION 1..445: note = Ab1110 HC Knob; REGION 1..471: note = Ab1110 HC Hole scFv-Fc
B2: Ab1088: anti-EpCAM T-LITE (CT) antibody, FIGS. 8A-8C, 9C (protein)
light: DIQMTQSPSSLSASVGDRVTITCSASSSVSSGNFHWYQQKPGKAPKLLIYRTSNLASGVPSRFSGSGSGTDYTLTISSLQPEDFATYYCQQWSGYPYTFGQGTKVEIKRTVAAPSVFIFPPSDEQLKSGTASVVCLLNNFYPREAKVQWKVDNALQSGNSQESVTEQDSKDSTYSLSSTLTLSKADYEKHKVYACEVTHQGLSSPVTKSFNRGEC
heavy: EVQLVESGGGLVQPGGSLRLSCAASGFTFSNYWMNWVRQAPGKGLEWVAQIRVKSENFATHYADSVKGRFTISRDDSKSTVYLQMNSLRAEDTAVYYCTLYDAFSWGQGTLVTVSSASTKGPSVFPLAPSSKSTSGGTAALGCLVKDYFPEPVTVSWNSGALTSGVHTFPAVLQSSGLYSLSSVVTVPSSSLGTQTYICNVNHKPSNTKVDKKV[human IgG1 Fc with changes left out]
modifications: knob heavy chain missing; REGION 1..215: note = Ab1088 Hole LC; REGION 1..445: note = Ab1088 Hole HC
B3: Ab1125 (protein)
scFv-Fc: QVQLVQSGAEVKKPGASVKVSCKASGYTFTSYWMHWVRQHPGQGLEWMGMIHPNSGGTNYAQKFQGRVTMTRDTSTSTVYMELSSLRSEDTAVYYCAMGDYVSRDYWGQGTLVTVSSGGGGSGGGGSGGGGSEIVLTQSPGTLSLSPGERATLSCRASSSVSSSYLHWYQQKPGQAPRLLIYSTSSRATGIPDRFSGSGSGTDFTLTISRLEPEDFAVYYCQQFSGYQFTFGQGTKLEIKGGGGS[human IgG1 Fc with changes left out]
light: B2 light
heavy: EVQLVESGGGLVQPGGSLRLSCAASGFTFSNYWMNWVRQAPGKGLEWVAQIRVKSENFATHYADSVKGRFTISRDDSKSTVYLQMNSLRAEDTAVYYCTLYDGFSWGQGTLVTVSSASTKGPSVFPLAPSSKSTSGGTAALGCLVKDYFPEPVTVSWNSGALTSGVHTFPAVLQSSGLYSLSSVVTVPSSSLGTQTYICNVNHKPSNTKVDKKV[human IgG1 Fc with changes left out]
B4: Ab1124: LS2A indinavir binding domain, FIGS. 5A-5E (antibody)
heavy: EVQLVESGGGLVQPGGSLRLSCAASGFTFSNYWMNWVRQAPGKGLEWVAQIRVKSENFATHYADSVKGRFTISRDDSKSTVYLQMNSLRAEDTAVYYCTLYDGFSWGQGTLVTVSSASTKGPSVFPLAPSSKSTSGGTAALGCLVKDYFPEPVTVSWNSGALTSGVHTFPAVLQSSGLYSLSSVVTVPSSSLGTQTYICNVNHKPSNTKVDKKV[human IgG1 Fc with changes left out]
scFv: QVQLVQSGAEVKKPGASVKVSCKASGYTFTSYWMHWVRQHPGQGLEWMGMIHPNSGGTNYAQKFQGRVTMTRDTSTSTVYMELSSLRSEDTAVYYCAMGDYVSRDYWGQGTLVTVSSGGGGSGGGGSGGGGSEIVLTQSPGTLSLSPGERATLSCRASSSVSSSYLHWYQQKPGQAPRLLIYSTSSRATGIPDRFSGSGSGTDFTLTISRLEPEDFAVYYCQQASGYQFTFGQGTKLEIKGGGGS[human IgG1 Fc with changes left out]
modifications: light chain entry not cited; REGION 1..445: note = Ab1124 HC Knob; REGION 1..471: note = Ab1124 HC Hole scFv-Fc
B5: Ab1105: LS2A indinavir binding domain, FIGS. 5A-5E (antibody)
heavy: EVQLVESGGGLVQPGGSLRLSCAASGFTFSNYWMNWVRQAPGKGLEWVAQIRVKSENFATHYADSVKGRFTISRDDSKSTVYLQMNSLRAEDTAVYYCTLYDGFSWGQGTLVTVSSASTKGPSVFPLAPSSKSTSGGTAALGCLVKDYFPEPVTVSWNSGALTSGVHTFPAVLQSSGLYSLSSVVTVPSSSLGTQTYICNVNHKPSNTKVDKKV[human IgG1 Fc with changes left out]
scFv: QVQLVQSGAEVKKPGASVKVSCKASGYTFTSYWMHWVRQHPGQGLEWMGMIHPQSGGTNYAQKFQGRVTMTRDTSTSTVYMELSSLRSEDTAVYYCAMGDYVSRDYWGQGTLVTVSSGGGGSGGGGSGGGGSEIVLTQSPGTLSLSPGERATLSCRASSSVSSSYLHWYQQKPGQAPRLLIYSTSSRATGIPDRFSGSGSGTDFTLTISRLEPEDFAVYYCQQYSGYQFTFGQGTKLEIKGGGGS[human IgG1 Fc with changes left out]
modifications: light chain entry not cited; REGION 1..445: note = Ab1105 HC Knob; REGION 1..471: note = Ab1105 HC Hole scFv-Fc
B6: Ab1134: anti-CD3 binding domain, FIGS. 7A-7C; CC protein, FIG. 9B (antibody)
heavy 1: EVQLVESGGGLVQPGGSLRLSCAASGFTFSTYAMNWVRQAPGKGLEWVARIRSKYNNYATYYADSVKGRFTISRDDSKSILYLQMNSLRAEDTAVYYCVRHGNFGNSYVSWFAYWGQGTLVTVSSGGGGSGGGGSGGGGSDIQVTQSPSSLSASVGDRVTITCRSSTGAVTTSNYANWVQQKPGKAFKGLIGGTNKLAPGVPSRFSGSLSGDDATLTISSLQPEDFATYYCALWYSNLWVFGQGTKLEIKGGGGS[human IgG1 Fc with changes left out]
heavy 2: EVQLVESGGGLVQPGGSLRLSCAASGFDFSSYSIHWVRQAPGKGLEWVAAISPYYGSTYYADSVKGRFTISADTSKNTAYLQMNSLRAEDTAVYYCARYYEYYKYDLYAGSLGFDYWGQGTLVTVSSASTKGPSVFPLAPSSKSTSGGTAALGCLVKDYFPEPVTVSWNSGALTSGVHTFPAVLQSSGLYSLSSVVTVPSSSLGTQTYICNVNHKPSNTKVDKKVEPKSCDKTHTGGGGSGGEVQLVESGGGLVQPGGSLRLSCAASGFDFSSYSIHWVRQAPGKGLEWVAAISPYYGSTYYADSVKGRFTISADTSKNTAYLQMNSLRAEDTAVYYCARYYEYYKYDLYAGSLGFDYWGQGTLVTVSSASTKGPSVFPLAPSSKSTSGGTAALGCLVKDYFPEPVTVSWNSGALTSGVHTFPAVLQSSGLYSLSSVVTVPSSSLGTQTYICNVNHKPSNTKVDKKV[human IgG1 Fc with changes left out]
light: DIQMTQSPSSLSASVGDRVTITCRASQSVSSAVAWYQQKPGKAPKLLIYSASSLYSGVPSRFSGSRSGTDFTLTISSLQPEDFATYYCQQGGYSLITFGQGTKVEIKRTVAAPSVFIFPPSDSQLKSGTASVVCLLNNFYPREAKVQWKVDNALQSGNSQESVTEQDSKDSTYSLSSTLTLSKADYEKHKVYACEVTHQGLSSPVTKSFNRGEC
modifications: REGION 1..481: note = Ab1134 Knob HC; REGION 1..698: note = Ab1134 Hole HC; REGION 1..214: note = Ab1134 Hole LC

Columns and labels:
[1] = BLI binding of LS2A variants to biotin-IDV; conditions: LS2A R4 variants (Table 21)
Protocol: In R1 of engineering, point mutations were made to remove an oxidation site, deamidation sites, or a hydrophobic residue. In addition, several murine back mutations were tested to improve humanization. Binding kinetics were measured to biotin-IDV and LS2B Ab0637.
Bio-layer interferometry (BLI) data were measured using an Octet RED384 (ForteBio) instrument. Antigens of interest were immobilized on an AHC biosensor and loaded until a 0.4-0.6-nm signal was achieved. Purified antibodies were used as the analyte premixed with 10 μM Indinavir or 0.05% DMSO vehicle. PBSTB (PBS, pH 7.4, 0.05% Tween-20, 0.2% BSA) was used for all buffers for BLI. Data were analyzed using ForteBio Octet analysis software and kinetic parameters were determined using a 1:1 monovalent binding model.

[2] = Differential scanning fluorimetry (DSF) melting temperature; format: physicochemical
Protocol: DSF was performed on a LC480 Lightcycler Instrument II (Roche). Purified recombinant protein was diluted to 5 μM in DSF buffer (PBS, pH 7.4, Sypro Orange 5×) with small molecule (10 μM VTX) or vehicle (0.05% DMSO) and then heated with a temperature gradient (0.01° C./s) from 25 to 95° C. Data were continuously acquired at ˜465 nm (excitation) and ˜580 nm (emission). Data was analyzed to generate first derivative curves in which the curve maximum was reported as the melting temperature of the protein.

Molecule	Kd [1] [µM]	TM (° C.) ([2]; LS2A R4 variants (Table 21)) [°C]	also measured
B1	0.0049	–	–
B2	–	–	TM (° C.) ([2]; thermostability by DSF, Table 27): 70.1 °C
B3	–	58	–
B4	0.022	–	–
B5	0.011	59.6	–
B6	–	–	TM (° C.) ([2]; v68-5 R2 variants (Table 24)): 63.7 °C

— patent publication US20240190987A1, “Engineered EpCam Binding Antibodies” (TigaTX, priority 2021, published 2024)
